According to the RNAGym collection of RNA variant scans (doi:10.1093/nar/gkz1192):
The source gives no read counts; variants with many changes may rest on few reads.

B1: CPEB3 Ribozyme (parent)
chain: UAACAGGGGGCCACAGCAGAAGCGUUCACGUCGCAGCCCCUGUCAGAUUCUGGUGAAUCUGCGAAUUCUGCUGUAUAUCUC

Variants of: B1
Assay: self-cleavage, relative activity (ratio to wild type); higher = more cleavage; in vitro, sequencing
How it was run: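 Relative activity was defined as the cleaved/total read fraction for a variant divided by the same fraction for the unmutated ribozyme. CPEB3 self-cleaving ribozyme libraries were made by rounds of error-prone PCR, barcoded, and transcribed in vitro with T7 RNA polymerase for 5 hours at 37°C, and cleavage ran through transcription plus a 15 min DNase I step before EDTA. Illumina sequencing of template-switched reverse transcripts gave the reads, and DNA sequencing mapped the barcodes. Averages come from three batches, using variants with at least 5 reads.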

| Variant | self-cleavage |
| --- | --- |
| UAACAGGGGGCCUCGGCAGAAGCGUUCACGUCGCAGCCCCCGUCAGAUUCUGGUGGAUCUGCGAAUUCUGCUGUAUAUCUC | 0.66 |
| UAACAGGGGGCCUCGGCAGAAGCGUUCACGUCGCAGCCCCUGUCAGAUUCUGGUGGAUCUGCGAAUUCUACUGUAUAUCUC | 0.24 |
| UAACAGGGGGCCUCGGCAGGAGCGUUCACGUCGCAGCCCCUGUCAGAUUCUGGUGAAUCUGCGAAUUCUGCCGUAUAUGUC | 1.26 |
| UAACAGGGGGCCUCAGCUGGAGCGUUCACGUCGCGGCCCCAGUCAGAUCCUGGUGAAUCUGCGAAUUCUGCCGUAUAUCUC | 0.05 |
| UAACAGGGGGCCUCAGCUGGAGCGUUCACGUCGCAGCCCCUGACAGAUUCUGGCGAAUCUGCGAAUUCUGCUGUAUAUCUC | 0.35 |
| UAACAGGGGGCCUCGGCAGAAGCGUUCUCGUCGCAGCCCCUGUCAGAUUCUGGUGAAUCUGCGUAUUCAGCUGUAUAUCUC | 0.13 |
| UAACAGGGGGCCUCGGCAGAAGCGCUCACGUCGCAGCCCCUGUCAGAUUCUGGUGAAUCUGCGAAUUCUGCUGUAUAUCUC | 0.37 |
| UAACAGGGGGCCGCAGCAGAAGCGUUCACGUCGCAGCCCCUGUCAGAUUCUGGUGAAUCUGCGAACUCUGUUGCAUGUCUC | 0.19 |
| UAACAGGGGGCCGCAGCAGAAGCGUUCACGUCGCAGCCCCUGCCAGAUUCUGGUGAAUCAGCGAAUUCUGCUGUAUAUCUC | 0.07 |
| UAACAGGGGGCCUCCGCAGGAGCGUUCACGUCGCUGCCCCAGUCAGAUUCUGGUGAAUCUGCGAAUUCUGCUGUAGAUCUC | 0.09 |
| UAACAGGGGGCCGCAGCAGAAGCGUUCACGUCGCAGCCCCUGUCAGACUCUGGUGAAUCUGCGAAUUCAGCUGUAUAUCCC | 0.14 |
| UAACAGGGGGCCUCUGCAGAAGCGUUCCCGUCGCAGCCCCUGUCAGAUUCUGGUGAAUCUGCGAAUUCUGCUGUAUAUCUC | 0.18 |
| UAACAGGGGGCCGCAGCAGAAGCGUUCACGUCGCAGCCCCUGUCAGAUUCUGGUGAAUCUGCGAAUUCUGCUGUAUACCAC | 1.14 |
| UAACAGGGGGCCUCGGCAGAAGCGUUCACGUCGCAGCCCCUGCCAGAUUCUGGUGAAUCUGCGAAUUCUGCUGUAUAUCUC | 0.85 |
| UAACAGGGGGCCUCGGCAGAAGCGUUCUCGUCGCAGCCCCAGUCAGAUUCUGGUGAAUCUGCGAAUUCAGCUGUAUAUCUC | 0.2 |
| UAACAGGGGGCCGCAGCAGAAGCGUUCACGUCGCAGCCCCUGUCAGACUCAGGCGAAUCUGCGAAUUCUGCAGUAUAUCUC | 0.38 |
| UAACAGGGGGCCUCAGCCGAAGCGUUCACGUCGCAGCCCCUGUCAGAUUCCGGUGAAUCUGCGGGUUCUGCUGCAUAUCUC | 0.04 |

| Variant | self-cleavage |
| --- | --- |
| UAACAGGGGGCCUCUGCAGAAGCGUUCACGUCGCAGCCCCUGUCAGAUUCUGGUGAAUCUGCGAAUUCUGCUAUAUAUCUC | 1.03 |
| UAACAGGGGGCCGCAGCAGAAGCGUUCACGUCGCAGCCCCUGUCAGAUUCCGGUGACUCUGCGAAUUCUGCUGUAUAUCUC | 0.18 |
| UAACAGGGGGCCGCAGCAGAAGCGUUCACGUCGCAGCCCCUGUCAGACUCUGGUGAAUCUGCGAAUCCUGCUGUAUAUCUC | 0.19 |
| UAACAGGGGGCCUCGGCAGAAGCGUUCACGUCGCAGCCCCUGUCAGGUUCUGGUGAAUCUGCGGAUUCUGCUGUGUAUCUC | 0.53 |
| UAACAGGGGGCCGCAGCAGAAGCGUUCACGUCGCAGCCCCUGUCAGAUUCUGGUGAAUCCGCGAAUUCUGCUGUGUAUCUC | 0.63 |
| UAACAGGGGGCCUCAGCGGAAGCGCUCGCGUCGCAGCCCCUGUCAGAUUCUGGUGAAUCUGCGAAUUCAGCUGCAUAUCUC | 0.02 |
| UAACAGGGGGCCUCAGCGGAAGCGUUCACGUCGCAGCCCCUGUCAGAUUCUGGUGGAUCUGCGAAUUCUGCUGUAUAUCUC | 0.91 |
| UAACAGGGGGCCGCAGCAGAAGCGUUCACGUCGCAGCCCCUGUCAGAUUCUGGUGAAUCAGCGAAUUCUGCUGUAUAACUC | 0.28 |
| UAACAGGGGGCCGCAGCAGAAGCGUUCACGUCGCAGCCCCUGUCAGAUUCUGGUGAAUCAGCGAAUUCUGCUGUAUACCUC | 0.29 |
| UAACAGGGGGCCUCGGCAGAAGCGUUCUCGUCGCAGCCCCUGUCAGAUUCCGGUGAAUCUGCGAAUUCUGCUGUAUAUCAC | 0.47 |
| UAACAGGGGGCCGCAGCAGAAGCGUUCACGUCGCAGCCCCUGUCAGAUUCUGGUGAAACCGCGAAUUCUGCUGUAUAUCUC | 0.27 |
| UAACAGGGGGCCUCGGCAGAAGCGUACACGUCGCAGCCCCUGUCAGAUUCUGGUGAAUCUGCGAAUUCUGCAGUAUAUCUC | 0.55 |
| UAACAGGGGGCCUCGGCAGAAGCGAUCACGUCGCAGCCCCUGUCAGAUUCUCGUGAAUCUGCGAAUUCUGCUGUAUAUCUC | 0.34 |
| UAACAGGGGGCCGCAGCAGAAGCGUUCACGUCGCAGCCCCUGUCAGAUUCUGGCGAAUCUGAGAAUUCUGCUGUAUAUCUC | 0.26 |
| UAACAGGGGGCCGCAGCAGAAGCGUUCACGUCGCAGCCCCUGACAGAUUCUGGUGAGUCUGCGAAUUCUGCCGUAUAUCUC | 0.99 |
| UAACAGGGGGCCGCAGCAGAAGCGUUCACGUCGCAGCCCCUGUCAGAUUCUGGCGAAUCCGCGGAUUCUGCGGUAUAUCUC | 0.17 |
| UAACAGGGGGCCGCAGCAGAAGCGUUCACGUCGCAGCCCCUGUCAGAUUCAGGUGAAUCUGCGAAUUCUGCUGCAUAUCUC | 0.83 |
